# Laboratory results reported in PubChem BioAssay (Tox21).
# Values joined by “and” are separate entries in the source; they are usually repeats but may differ in a detail not shown here. Equal entries are not always repeated. The inconclusive results got no clear call from the source; some entries with a clear call stand among them for comparison. No potency is given beside an inconclusive call; the fits are too rough. Active and inactive are the calls of the source. Calls come from the whole dose curve; as a rule, active = well fitted cell-killing curve with a large enough effect in the repeat runs; inconclusive = weak or mixed curves, or effect the other way; inactive = flat fitted curve, though single readings scatter.
# Assay: qHTS RealTime-Glo MT Cell Viability Assay in HEK293 cells - 8 hour (AID 1224887); note: nearly all actives have a fitted effect of over 50% in size; for activity change, negative = cytotoxicity: top concentration of the series differs between compounds
# Conditions: RealTime-Glo luminescence; series mostly up to 76.8 µM
# In short: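 Cells were seeded together with NanoLuc luciferase and a prosubstrate that viable cells reduce to a luciferase substrate. After a 5 h incubation at 37 C/5% CO2, compounds were added and luminescence was measured repeatedly during 40 h of treatment.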
# % is set by controls: 0 for no effect and ±100 for the full control effect; potency is the fitted concentration of half-maximal effect; tags give direction and shape of the fitted curve.
SMILES,Potency,"activity change, negative = cytotoxicity"
Cc1ccccc1N=C(N)Nc1ccccc1C,inactive,
O=C(O)Cc1ccc(OCCNC[C@H](O)c2ccccc2)cc1,inactive,
O=C(OCC(O)CO)c1ccccc1Nc1ccnc2c(C(F)(F)F)cccc12 (stereo not drawn),active: 3.79 µM,
COC(=O)CCS,"inconclusive [cytotoxic, single point]",
CCc1cc(C(C)(C)C)c(O)c(C(C)(C)C)c1,inactive,
OCCN1CCNCC1,"inconclusive [cytotoxic, partial curve]",
CC(O)CN(CCN(CC(C)O)CC(C)O)CC(C)O (stereo not drawn),inactive,
OC1CCCCC1,"inconclusive [cytotoxic, single point]",
N#CCc1ccc(Cl)cc1Cl,inactive,
CCCOC(=O)c1ccc(O)cc1,"inconclusive [cytotoxic, partial curve]",
CC[C@H]1CN2CCc3cc(OC)c(OC)cc3[C@@H]2C[C@@H]1C[C@H]1NCCc2cc(OC)c(OC)cc21,active: 874 nM and active: 3.38 µM,
CC1(C)S[C@@H]2[C@H](NC(=O)C(c3ccccc3)S(=O)(=O)O)C(=O)N2[C@H]1C(=O)O (stereo partly drawn),inactive,
CCN(Cc1c(F)cccc1Cl)c1c([N+](=O)[O-])cc(C(F)(F)F)cc1[N+](=O)[O-],"inconclusive [cytotoxic, partial curve]",
Nc1ccc(Oc2ccc(Cl)cc2)cc1,"inconclusive [cytotoxic, partial curve]",
CC(C)N=C(N)/N=C(\N)Nc1ccc(Cl)cc1,"inconclusive [cytotoxic, single point]",
CN1C(CSCC(F)(F)F)Nc2cc(Cl)c(S(N)(=O)=O)cc2S1(=O)=O (stereo not drawn),active: 19 µM,
CC1(C)CC(OC(=O)CCCCCCCCC(=O)OC2CC(C)(C)NC(C)(C)C2)CC(C)(C)N1,,inactive: 1.91% [at 15.8 µM]
O=C(CCCN1CC=C(n2c(=O)[nH]c3ccccc32)CC1)c1ccc(F)cc1,active: 16.9 µM,
CCSCC,inactive,
CCCC1C(CC)=CC(CC)=CN1c1ccccc1 (stereo not drawn),"inconclusive [cytotoxic, partial curve]",
O=C1Cc2cc(Cl)ccc2N1,"inconclusive [rising, partial curve]",
c1ccc2sc(SN(C3CCCCC3)C3CCCCC3)nc2c1,inactive,
CC(C)(C)CC(=O)OCC(=O)[C@@]1(O)CC[C@H]2[C@@H]3CCC4=CC(=O)C=C[C@]4(C)[C@H]3[C@@H](O)C[C@@]21C,"inconclusive [cytotoxic, partial curve]",
